# Laboratory results from PubChem BioAssay (Tox21).
# This list was built around the results that the source calls inconclusive (neither active nor inactive); the mix of calls is not that of the screen. For some assays here: A potency beside an inconclusive call is a rough fit, not a confirmed value. The source made the active and inactive calls. Unless noted, the call rests on the fitted dose curve; in most records, active means well fitted curve in the direction sought with a large enough effect in the repeat runs; inconclusive means weak or mixed curves; inactive means no such curve, though single readings can be large; an effect the other way counts as inactive or inconclusive.
# Legend:
# [1] = target: Peroxisome proliferator-activated receptor delta (Homo sapiens) (UniProt Q03181); experiment: qHTS assay to identify small molecule agonists of the peroxisome proliferator-activated receptor delta (PPARd) signaling pathway (AID 743212; calls by dose curve; further: on the % scale 0 is the no-effect control and ±100 the full control effect); settings: HEK293H PPARd-UAS-bla, beta-lactamase FRET ratio, 17 h; activation: at 62.6 µM (top of the series) unless noted
# Chain of UniProt Q03181 (Q03181 whole entry, looked up): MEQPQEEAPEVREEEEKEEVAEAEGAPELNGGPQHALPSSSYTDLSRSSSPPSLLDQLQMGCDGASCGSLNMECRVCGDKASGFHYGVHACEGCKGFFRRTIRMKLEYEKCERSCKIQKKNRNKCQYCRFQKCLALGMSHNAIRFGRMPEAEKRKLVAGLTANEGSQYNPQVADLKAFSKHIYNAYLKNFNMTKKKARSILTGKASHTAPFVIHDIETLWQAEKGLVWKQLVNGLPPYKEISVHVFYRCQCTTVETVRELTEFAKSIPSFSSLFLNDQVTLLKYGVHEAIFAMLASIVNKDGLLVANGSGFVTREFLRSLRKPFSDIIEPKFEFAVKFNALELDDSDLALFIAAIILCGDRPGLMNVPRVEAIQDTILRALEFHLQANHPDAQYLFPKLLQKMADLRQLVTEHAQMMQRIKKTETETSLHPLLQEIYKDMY
# Summary of the method: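 Tox21 library screened in GeneBLAzer PPARd UAS-bla HEK293H cells. After compound treatment at 37 C, a FRET-based beta-lactamase substrate was applied for 2 h and fluorescence recorded.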
# [2] = qHTS assay to identify small molecule antagonists of the peroxisome proliferator-activated receptor delta (PPARd) signaling pathway - cell viability counter screen (AID 743213); settings: PPARd-bla HEK293H viability, CellTiter-Glo luminescence, 17 h; viability change, negative = cytotoxic: at 62 µM (top of the series) unless noted; further: nearly all actives have a fitted effect of over 50% in size; further: potency means the concentration at half of the fitted maximal effect
# Summary of the method: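 Cytotoxicity counter screen: CellTiter-Glo luminescence read 30 min after addition, in the same wells as the reporter assay. There, PPARd UAS-bla HEK293H cells (3000/well) were treated 17 h at 37 C with compound and 300 nM L165041.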
# [3] = target: Peroxisome proliferator-activated receptor delta (Homo sapiens) (UniProt Q03181); experiment: qHTS assay to identify small molecule antagonists of the peroxisome proliferator-activated receptor delta (PPARd) signaling pathway (AID 743215; active means well fitted inhibition curve with a large enough effect in the signal ratio in the repeat runs, not every such curve was filed as active; inconclusive means weak or mixed curves, or effect the other way; inactive means no such curve, though single readings can be large or run the other way; the % refers to the signal ratio;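 further: cells stimulated with agonist L165041 at 300 nM final during compound exposure; on the % scale 0 is the no-effect control and ±100 the full control effect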); settings: HEK293H PPARd-UAS-bla, beta-lactamase FRET ratio, antagonist, 17 h; ratio activity, negative = inhibition: at 62 µM (top of the series) unless noted
# Summary of the method: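 Here, a reporter line (HEK293H, beta-lactamase under a UAS) measures PPARd signaling. Compounds are tested against agonist L165041 at 300 nM final concentration over 17 h at 37 C, with fluorescence read after substrate.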
# [4] = qHTS assay to identify small molecule agonists of the farnesoid-X-receptor (FXR) signaling pathway - cell viability counter screen (AID 743218); settings: FXR-bla HEK293T viability, CellTiter-Glo luminescence, 16 h; viability change, negative = cytotoxic: at 62.6 µM (top of the series) unless noted; further: nearly all actives have a fitted effect of over 45% in size; further: potency means the concentration at half of the fitted maximal effect; on viability change, negative = cytotoxic: on the % scale 0 is the no-effect control and ±100 the full control effect
# Summary of the method: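 Quantitative HTS counter screen measuring ATP-based viability via CellTiter-Glo luminescence in HEK 293T cells carrying a UAS-driven beta-lactamase reporter, after 16 h compound exposure at 37 C.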
# [5] = target: Vitamin D3 receptor (Homo sapiens) (UniProt P11473); experiment: qHTS assay to identify small molecule agonists of the vitamin D receptor (VDR) signaling pathway (AID 743222; calls by dose curve; further: potency means the concentration at half of the fitted maximal effect; on activation: on the % scale 0 is the no-effect control and ±100 the full control effect); settings: HEK293T VDR-UAS-bla, beta-lactamase FRET ratio, 16 h; activation: at 63.5 µM (top of the series) unless noted
# Chain of UniProt P11473 (P11473 whole entry, looked up): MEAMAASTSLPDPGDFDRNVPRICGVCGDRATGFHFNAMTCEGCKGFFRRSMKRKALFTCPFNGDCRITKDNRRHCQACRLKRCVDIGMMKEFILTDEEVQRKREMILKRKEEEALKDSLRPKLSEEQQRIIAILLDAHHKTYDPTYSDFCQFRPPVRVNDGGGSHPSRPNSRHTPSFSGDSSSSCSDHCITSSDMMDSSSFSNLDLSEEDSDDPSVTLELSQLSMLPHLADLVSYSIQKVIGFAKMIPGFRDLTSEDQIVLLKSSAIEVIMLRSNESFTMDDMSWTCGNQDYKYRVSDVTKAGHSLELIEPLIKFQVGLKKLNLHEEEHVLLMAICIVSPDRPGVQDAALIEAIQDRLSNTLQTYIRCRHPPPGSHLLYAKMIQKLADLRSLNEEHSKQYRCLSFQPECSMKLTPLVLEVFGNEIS
# Summary of the method: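 Tox21 cell reporter format: VDR-bla line, 16 h compound exposure in 5% CO2 at 37C, then fluorescence intensity after 2 h with LiveBLAzer B/G FRET substrate.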
# [6] = qHTS assay to identify small molecule agonists of the endoplasmic reticulum stress response signaling pathway (AID 1159516; active means well fitted activation curve with a large enough effect in the signal ratio in the repeat runs, not every such curve was filed as active; inconclusive means weak or mixed curves, or effect the other way; the % refers to the signal ratio; further: potency means the concentration at half of the fitted maximal effect); settings: ESRE-bla HeLa, ER stress beta-lactamase reporter, 5 h; activation: at 61 µM (top of the series) unless noted
# Summary of the method: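 Fluorescence at 460 and 530 nm (405 nm excitation) reports beta-lactamase from an ER stress response element in HeLa cells treated 5 hr at 37 C.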
# [7] = qHTS assay to identify small molecule agonists of the RXR signaling pathway - cell viability counter screen (AID 1159529); further: nearly all actives have a fitted effect of over 50% in size; further: potency means the concentration at half of the fitted maximal effect
# Summary of the method: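 Tox21 10K compounds were tested for cytotoxicity against GeneBLAzer RXR-alpha HEK 293T cells grown in 2% charcoal-stripped FBS. Exposure lasted 16 hr at 37 C, 5% CO2; viability read by CellTiter-Glo luminescence.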
# [8] = target: Vitamin D3 receptor (Homo sapiens) (UniProt P11473); experiment: qHTS assay to identify small molecule antagonists of the vitamin D receptor (VDR) signaling pathway (AID 743223; active means well fitted inhibition curve with a large enough effect in the signal ratio in the repeat runs, not every such curve was filed as active; inconclusive means weak or mixed curves, or effect the other way; inactive means no such curve, though single readings can be large or run the other way; the % refers to the signal ratio; further: potency means the concentration at half of the fitted maximal effect); settings: VDR-UAS-bla HEK293T, beta-lactamase FRET ratio, 16 h; activity change, negative = inhibition: at 61 µM (top of the series) unless noted
# Summary of the method: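 After VDR-bla cells are plated and left 4 h at 37C, DMSO-dissolved compounds and 3 nM (final) calcitriol agonist are added. Incubation continues 16 h at 37C; FRET beta-lactamase substrate then develops 2 h at room temperature.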
# [9] = qHTS assay to identify small molecule antagonists of the farnesoid-X-receptor (FXR) signaling pathway - cell viability counter screen (AID 743221; active means well fitted cell-killing curve with a large enough effect in the repeat runs, not every such curve was filed as active; inconclusive means weak or mixed curves, or effect the other way; inactive means no such curve, though single readings can be large or run the other way; further: on the % scale 0 is the no-effect control and ±100 the full control effect; nearly all actives have a fitted effect of over 50% in size); settings: FXR-bla HEK293T viability, CellTiter-Glo luminescence, 16 h; activity change, negative = cytotoxicity: at 62.6 µM (top of the series)
# Summary of the method: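 CellTiter-Glo, 30 min RT, luminescence; same wells as the LiveBLAzer FRET read. Cells: FXR-UAS-bla HEK 293T. Treatment: compound with chenodeoxycholic acid 50 uM final, 16 h at 37 C.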
# [10] = target: Bile acid receptor (Homo sapiens) (UniProt Q96RI1); experiment: qHTS assay to identify small molecule antagonists of the farnesoid-X-receptor (FXR) signaling pathway (AID 743217; active means well fitted inhibition curve with a large enough effect in the signal ratio in the repeat runs, not every such curve was filed as active; inconclusive means weak or mixed curves, or effect the other way; inactive means no such curve, though single readings can be large or run the other way; the % refers to the signal ratio; further: potency means the concentration at half of the fitted maximal effect); settings: HEK293T FXR-UAS-bla, beta-lactamase ratio, CDCA-stimulated, 16 h; activity change, negative = inhibition: at 62.6 µM (top of the series) unless noted
# Chain of UniProt Q96RI1 (Q96RI1 whole entry, looked up): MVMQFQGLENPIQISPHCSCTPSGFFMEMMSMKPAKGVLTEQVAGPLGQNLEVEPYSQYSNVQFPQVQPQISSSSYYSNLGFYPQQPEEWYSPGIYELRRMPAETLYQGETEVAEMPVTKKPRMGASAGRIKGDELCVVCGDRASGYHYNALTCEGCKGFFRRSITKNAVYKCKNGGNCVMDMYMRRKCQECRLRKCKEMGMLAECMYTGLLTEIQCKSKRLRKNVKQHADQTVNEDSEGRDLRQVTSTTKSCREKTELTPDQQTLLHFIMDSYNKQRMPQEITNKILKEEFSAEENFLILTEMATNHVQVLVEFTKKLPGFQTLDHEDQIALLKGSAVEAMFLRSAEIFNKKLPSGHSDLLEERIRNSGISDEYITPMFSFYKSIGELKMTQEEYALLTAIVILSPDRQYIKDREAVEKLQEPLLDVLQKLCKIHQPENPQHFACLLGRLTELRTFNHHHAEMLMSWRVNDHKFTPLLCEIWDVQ
# Summary of the method: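 Test compounds are pin-transferred onto FXR-bla HEK 293T cells, then chenodeoxycholic acid is added at 50 uM final. After 16 h at 37 °C, LiveBLAzer B/G substrate is applied for 2 h at room temperature and fluorescence read.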
# [11] = qHTS assay to identify small molecule agonists of the vitamin D receptor (VDR) signaling pathway - cell viability counter screen (AID 743224); settings: VDR-bla HEK293T viability, CellTiter-Glo luminescence, 16 h; activity change, negative = cytotoxicity: at 62.6 µM (top of the series); further: potency means the concentration at half of the fitted maximal effect; nearly all actives have a fitted effect of over 50% in size
# Summary of the method: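 CellTiter-Glo viability readout on VDR-bla cells, measured after 16 h of compound treatment at 37C in the same wells.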
# [12] = qHTS assay to identify small molecule antagonists of the vitamin D receptor (VDR) signaling pathway - cell viability counter screen (AID 743225); settings: VDR-bla HEK293T viability, CellTiter-Glo luminescence, 16 h; viability change, negative = cytotoxic: at 61 µM (top of the series) unless noted; further: nearly all actives have a fitted effect of over 50% in size; further: potency means the concentration at half of the fitted maximal effect
# Summary of the method: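 Cytotoxicity toward the VDR-bla HEK 293T line was scored by ATP-based CellTiter-Glo luminescence, read in the wells already used for the beta-lactamase readout after 16 h compound treatment under 3 nM 1-alpha,25-dihydroxyvitamin D3 stimulation.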
# [13] = qHTS assay to identify small molecule antagonists of the retinoid acid receptor (RAR) signaling pathway - cell viability counter screen (AID 1159551); further: nearly all actives have a fitted effect of over 35% in size; further: potency means the concentration at half of the fitted maximal effect
# Summary of the method: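 In this counter screen, the RARE-luciferase line C3RL4 was exposed for 6 h at 37 C and 5% CO2 to compounds with retinol at 1 uM final. Cellular ATP, read by luminescence, served as the viability measure.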
# [14] = target: Bile acid receptor (Homo sapiens) (UniProt Q96RI1); experiment: qHTS assay to identify small molecule agonists of the farnesoid-X-receptor (FXR) signaling pathway (AID 743220; active means well fitted activation curve with a large enough effect in the signal ratio in the repeat runs, not every such curve was filed as active; inconclusive means weak or mixed curves, or effect the other way; the % refers to the signal ratio; further: potency means the concentration at half of the fitted maximal effect); settings: HEK293T FXR-UAS-bla, beta-lactamase FRET ratio, 16 h; activation: at 62.6 µM (top of the series) unless noted
# Summary of the method: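 FXR-UAS-bla HEK 293T cells carrying a UAS-driven beta-lactamase reporter were plated for 5 h at 37C/5% CO2, then exposed to DMSO-dissolved Tox21 10K compounds for 16 h at 37C. A LiveBLAzer B/G FRET substrate was loaded for 2 h at room temperature before fluorescence reading.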
# [15] = target: Retinoic acid receptor RXR-alpha (Homo sapiens) (UniProt P19793); experiment: qHTS assay to identify small molecule agonists of the RXR signaling pathway (AID 1159527; calls by dose curve; further: on the % scale 0 is the no-effect control and ±100 the full control effect; nearly all actives have a fitted effect of over 35% in size); settings: HEK293T RXRa-UAS-bla, beta-lactamase ratio, 16 h; activation: at 76.8 µM (top of the series) unless noted
# Chain of UniProt P19793 (P19793 whole entry, looked up): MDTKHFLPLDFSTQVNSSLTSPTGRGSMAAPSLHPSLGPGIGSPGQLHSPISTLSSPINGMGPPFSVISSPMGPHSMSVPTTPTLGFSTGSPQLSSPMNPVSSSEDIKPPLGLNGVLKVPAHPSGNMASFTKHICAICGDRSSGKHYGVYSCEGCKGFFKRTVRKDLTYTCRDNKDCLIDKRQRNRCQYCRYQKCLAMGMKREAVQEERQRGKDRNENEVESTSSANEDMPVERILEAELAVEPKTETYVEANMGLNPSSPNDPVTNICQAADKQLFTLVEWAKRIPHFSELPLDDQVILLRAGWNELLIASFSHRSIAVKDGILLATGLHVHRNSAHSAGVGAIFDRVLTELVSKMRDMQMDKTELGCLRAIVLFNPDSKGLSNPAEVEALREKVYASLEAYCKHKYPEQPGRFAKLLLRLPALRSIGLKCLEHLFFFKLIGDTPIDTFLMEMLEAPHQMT
# Summary of the method: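 Reporter activation is measured as beta-lactamase activity via FRET substrate cleavage (emission 460/530 nm) in HEK 293T cells expressing an RXR-alpha-driven bla construct, following 16 hr compound exposure at 37 C.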
# Tags describe the fitted curve by direction and shape or compound fluorescence and quenching.
structure (smiles),measurement,setting,value
COC(=O)NN,Potency,[1],inactive
same,Potency,[2],"inconclusive: 2 µM [cytotoxic, full curve, poor fit]"
same,"ratio activity, negative = inhibition",[3],inconclusive: -17.8% [at 80.4 µM]
same,"viability change, negative = cytotoxic",[4],inconclusive: -36% [cytotoxic] [at 81.1 µM]
same,Potency,[5],inactive
same,Potency,[6],inactive
same,Potency,[7],inactive
CCOC(=O)Nc1ccc(NCc2ccc(F)cc2)nc1N,activation,[1],inconclusive: 0.858%
same,"activity change, negative = inhibition",[8],inconclusive: 20.4%
same,Potency,[6],inactive
c1ccc(CC2=NCCN2)cc1,Potency,[2],"inconclusive: 2.11 µM [cytotoxic, full curve, poor fit]"
same,Potency,[4],"inconclusive: 0.841 µM [rising, full curve, poor fit]"
same,Potency,[9],inactive
same,Potency,[6],inactive
Oc1cccc2[nH]ccc12,Potency,[10],inactive
same,"activity change, negative = inhibition",[8],inconclusive: 12.3%
same,Potency,[6],inconclusive: 6.74 µM [activator]
same,Potency,[7],inactive
OCCC(F)(F)C(F)(F)C(F)(F)C(F)(F)C(F)(F)C(F)(F)F,Potency,[10],inactive
same,Potency,[6],inactive
same,Potency,[7],inactive
O=c1[nH]cnc2c1ncn2[C@H]1CC[C@@H](CO)O1,Potency,[3],inactive
same,Potency,[4],"inconclusive: 0.0167 µM [rising, full curve, poor fit]"
same,Potency,[11],"inconclusive: 5.96 µM [rising, full curve, poor fit]"
same,Potency,[12],"inconclusive: 9.36 µM [cytotoxic, single point]"
same,Potency,[6],"inconclusive: 0.0674 µM [rising, partial curve, poor fit]"
same,Potency,[13],"inconclusive: 15 µM [rising, partial curve, poor fit]"
CC1(C)CC(N=C=O)CC(C)(CN=C=O)C1 (configuration not stated),Potency,[2],inactive
same,"activity change, negative = inhibition",[10],inconclusive: -0.0611%
same,Potency,[4],inactive
same,Potency,[14],inactive
same,Potency,[5],"inconclusive: 55.7 µM [rising, partial curve, poor fit]"
same,Potency,[6],"inconclusive: 55.7 µM [activator, single point]"
Cc1ccc2c(ccc3ccccc32)c1,Potency,[10],inconclusive: 55.1 µM [inhibitor]
same,Potency,[5],inactive
same,Potency,[8],inactive
same,Potency,[11],"inconclusive: 49.2 µM [cytotoxic, partial curve, poor fit]"
same,Potency,[6],inactive
same,Potency,[7],"inconclusive: 34.8 µM [cytotoxic, partial curve, poor fit]"
Cc1cc(C)c(S(=O)(=O)O)cc1N=Nc1cc(S(=O)(=O)O)c2ccccc2c1O,Potency,[6],inactive
same,Potency,[13],"inconclusive: 24.3 µM [cytotoxic, partial curve]"
CCCCCCCCCCCC(=O)OCC(C)OC(=O)CCCCC(=O)O (configuration not stated),Potency,[10],"inconclusive: 21.3 µM [cytotoxic, partial curve, poor fit]"
same,Potency,[14],"inconclusive: 19 µM [falling, partial curve]"
same,"activity change, negative = inhibition",[8],inconclusive: 6.88%
same,Potency,[6],"inconclusive: 9.52 µM [cytotoxic, partial curve]"
same,Potency,[7],inactive
CC(=O)NCCO,Potency,[1],inactive
same,activation,[6],inconclusive: -1.54%
NC(=O)NS(=O)(=O)c1ccc(N)cc1,Potency,[11],"inconclusive: 29.8 µM [rising, partial curve, poor fit]"
same,Potency,[12],inactive
same,Potency,[6],"inconclusive: 0.268 µM [rising, partial curve, poor fit]"
same,Potency,[15],inactive
CCOCC(O)COc1ccc(NC(=O)CC[S+](C)C)cc1 (configuration not stated),Potency,[2],"inconclusive: 7.5 µM [cytotoxic, partial curve, poor fit]"
same,activation,[14],inconclusive: 0.938%
same,"activity change, negative = inhibition",[8],inconclusive: -8.89%
same,Potency,[6],inactive
CC(CCc1ccc(O)cc1)NCCc1ccc(O)c(O)c1 (configuration not stated),Potency,[1],inactive
same,Potency,[2],"inconclusive: 0.298 µM [cytotoxic, single point]"
same,activation,[5],inconclusive: -21.1%
same,Potency,[8],"inconclusive: 5.35 µM [inhibitor, single point]"
same,Potency,[6],"inconclusive: 23.9 µM [activator, partial curve, poor fit]"
COc1nccnc1NS(=O)(=O)c1ccc(N)cc1,Potency,[4],"inconclusive: 0.237 µM [rising, full curve, poor fit]"
same,Potency,[14],inactive
same,Potency,[6],inactive
same,Potency,[13],inactive
CC(C)COC(=O)CC(C(=O)OCC(C)C)S(=O)(=O)O (configuration not stated),Potency,[2],inactive
same,"ratio activity, negative = inhibition",[3],inconclusive: -0.934%
same,Potency,[5],inactive
same,"activity change, negative = inhibition",[8],inconclusive: 28.2%
same,Potency,[6],inactive
Nc1nc(N)nc(-c2cc(Cl)ccc2Cl)n1,Potency,[1],inactive
same,"viability change, negative = cytotoxic",[12],inconclusive: 0.273% [cytotoxic]
same,Potency,[6],"inconclusive: 0.0477 µM [rising, full curve, poor fit]"
same,Potency,[7],inactive
Cc1c(N)cccc1C(F)(F)F,Potency,[1],inactive
same,Potency,[3],inactive
same,activation,[6],inconclusive: -0.608%
COC(=O)N/N=C/c1c[n+]([O-])c2ccccc2[n+]1[O-],Potency,[3],inactive
same,Potency,[10],inactive
same,"viability change, negative = cytotoxic",[4],inconclusive: -1.76%
same,Potency,[6],inactive
NC(CSCC(=O)O)C(=O)O (configuration not stated),Potency,[4],"inconclusive: 0.237 µM [rising, partial curve]"
same,Potency,[6],inactive
COC(=O)CC(C(C)=O)C(=O)OC (configuration not stated),Potency,[10],inactive
same,Potency,[5],inactive
same,Potency,[8],"inconclusive: 8.71 µM [activator, partial curve]"
same,Potency,[6],inconclusive: 0.0015 µM
CC(C)(C)S,Potency,[2],inactive
same,Potency,[5],"inconclusive: 56.8 µM [activator, single point]"
same,"activity change, negative = inhibition",[8],inconclusive: 26.3% [at 78.8 µM]
same,Potency,[12],inactive
same,Potency,[6],"inconclusive: 22.6 µM [activator, partial curve, poor fit]"
